Legend:
[1] = biological target: human PD1-Fc-OX40L, Q15116; assay: non-reducing SDS-PAGE with Western blot; purified protein, non-reducing and reducing conditions, with or without PNGase F; probed with anti-PD1, anti-Fc and anti-OX40L
[2] = biological target: T1, human PD-L2, histidine-tagged recombinant (human), Q9BQ51; assay: SPR; BioRAD ProteOn XPR36; His-tagged targets immobilised on Ni-activated HTG chip; analyte in PBS/Tween (0.005%) pH 7.0, 3 min injection, 5 min dissociation, flow 80-100 μl/min
T1 chain: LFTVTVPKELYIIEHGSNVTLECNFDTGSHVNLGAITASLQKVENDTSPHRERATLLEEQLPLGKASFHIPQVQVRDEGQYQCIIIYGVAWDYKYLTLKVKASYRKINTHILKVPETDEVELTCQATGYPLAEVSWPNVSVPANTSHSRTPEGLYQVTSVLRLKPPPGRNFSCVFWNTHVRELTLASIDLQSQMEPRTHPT

[3] = biological target: T2, human OX40, histidine-tagged recombinant (human), P43489; assay: as above
T2 chain: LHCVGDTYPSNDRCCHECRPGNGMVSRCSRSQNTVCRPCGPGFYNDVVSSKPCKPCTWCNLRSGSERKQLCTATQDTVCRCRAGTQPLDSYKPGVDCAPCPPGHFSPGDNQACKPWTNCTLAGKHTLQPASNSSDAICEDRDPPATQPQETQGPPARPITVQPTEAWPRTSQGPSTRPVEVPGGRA

[4] = biological target: T3, human OX40 on Jurkat or HeLa cells (human), P43489; assay: flow cytometry on cells; stable cell lines CHOK1/hPD-L1, CHOK1/hPD-L2 and Jurkat/hOX40 incubated with PD1-Fc-OX40L; dose-response plots to derive EC50
T3 chain: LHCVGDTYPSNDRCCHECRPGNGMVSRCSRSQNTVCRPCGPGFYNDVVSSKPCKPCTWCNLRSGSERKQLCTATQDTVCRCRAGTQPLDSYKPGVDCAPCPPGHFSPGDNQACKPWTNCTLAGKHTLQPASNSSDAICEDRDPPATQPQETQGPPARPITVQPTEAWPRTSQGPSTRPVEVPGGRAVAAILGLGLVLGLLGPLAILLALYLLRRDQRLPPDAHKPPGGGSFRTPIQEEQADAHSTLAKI

[5] = biological target: T4, human PD-L2 on CHO-K1 cells (human), Q9BQ51; assay: as above
T4 chain: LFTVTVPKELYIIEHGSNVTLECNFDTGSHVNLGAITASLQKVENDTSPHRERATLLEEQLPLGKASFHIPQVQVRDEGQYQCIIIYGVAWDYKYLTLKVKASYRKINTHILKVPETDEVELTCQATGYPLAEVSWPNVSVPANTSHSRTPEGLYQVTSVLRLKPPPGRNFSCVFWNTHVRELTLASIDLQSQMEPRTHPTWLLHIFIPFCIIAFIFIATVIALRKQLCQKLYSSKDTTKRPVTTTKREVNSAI

- stoichiometry N [1]: 2
- Kd [2]: 1.24 nM
- Kd [3]: 0.246 nM
- EC50 [4]: 6.28 nM
- EC50 [5]: 47.7 nM
B1: human PD1-Fc-OX40L (Fc fusion)
chain: [omitted - about 400 residues with a human IgG4 Fc]QVSHRYPRIQSIKVQFTEYKKEKGFILTSQKEDEIMKVQNNSVIINCDGFYLISLKGYFSQEVNISLHYQKDEEPLFQLKKVRSVNSLMVASLTYKDKVYLNVTTDNTSLDDFHVNGGELILIHQNPGEFCVL
modifications: not checked

From article PMC6299665
